# From article PMC6919601, “Identification of Plasmodium dipeptidyl aminopeptidase allosteric inhibitors by high throughput screening” (PLoS ONE, 2019)
# The whole screen tested about 110,000 compounds, of which about 230 (0.21%) showed an effect of 50% or more. The list shows a part of the results.
# Target: DPAP1 (Plasmodium falciparum, UniProt Q8IIJ9)
# Assay: primary screen, percent inhibition; read by cleavage of a fluorogenic dipeptide substrate; higher = more effect of the substance
# Design: species or system P. falciparum D10 trophozoite lysates; single well
# 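Note: 30 min substrate incubation versus DMSO and 10 µM JCP410 controls.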
# Sequence of DPAP1 (Q8IIJ9 whole entry, looked up): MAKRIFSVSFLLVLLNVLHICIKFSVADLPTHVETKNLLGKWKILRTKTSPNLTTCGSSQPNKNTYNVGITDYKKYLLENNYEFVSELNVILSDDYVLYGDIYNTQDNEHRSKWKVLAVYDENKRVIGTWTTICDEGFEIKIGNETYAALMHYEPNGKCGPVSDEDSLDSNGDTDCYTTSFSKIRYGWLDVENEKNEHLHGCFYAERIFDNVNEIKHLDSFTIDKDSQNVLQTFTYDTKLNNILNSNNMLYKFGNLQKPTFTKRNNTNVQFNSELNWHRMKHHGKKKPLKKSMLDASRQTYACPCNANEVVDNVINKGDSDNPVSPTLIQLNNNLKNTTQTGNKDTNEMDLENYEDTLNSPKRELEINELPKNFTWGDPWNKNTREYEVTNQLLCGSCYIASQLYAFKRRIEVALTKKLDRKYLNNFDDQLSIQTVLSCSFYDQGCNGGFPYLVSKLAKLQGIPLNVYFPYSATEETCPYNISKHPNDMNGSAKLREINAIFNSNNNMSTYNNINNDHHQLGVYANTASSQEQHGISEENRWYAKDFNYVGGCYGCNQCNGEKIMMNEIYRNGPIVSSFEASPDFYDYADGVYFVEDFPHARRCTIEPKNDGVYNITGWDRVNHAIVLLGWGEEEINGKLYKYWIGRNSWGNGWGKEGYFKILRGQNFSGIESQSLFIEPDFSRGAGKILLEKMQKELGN
row,Structure (SMILES),% Inhibition @ 10 uM [%]
1,COc1ccc(/C=C/c2cc(C(F)(F)F)nc(O)n2)c(OC)c1,1.29
2,Cc1ccc(C(=O)C2=C(O)C(=O)N(CCN3CCOCC3)C2c2cccs2)cc1 (stereo not shown),1.64
3,COc1ccc(N2C(=O)CCC2(C#N)c2ccc(Br)cc2)cc1 (stereo not shown),-1.59
4,COc1cc(C2C(C#N)=C(N)Oc3c(O)nc(O)nc32)cc(OC)c1OC (stereo not shown),-1.29
5,CCC(c1ccccc1)c1nc(-c2ccc(OC)cc2)no1 (stereo not shown),-2.92
6,CN1CCN(CC(O)COCc2ccccc2)CC1 (stereo not shown),1.24
7,O=C(CNS(=O)(=O)c1ccccc1)Nc1ccc(Br)cc1F,-5.51
8,CCC(Sc1nc2nnc(C)c-2c(N)n1-c1ccc(C)c(Cl)c1)C(=O)NCc1ccco1 (stereo not shown),-2.17
9,O=C(Nc1cccnc1)c1cnn2c(C(F)(F)F)cc(-c3cccs3)nc12,-3.65
10,CCOC(=O)c1c(NC(=O)CSc2nnc(-c3ccncc3)n2CC)sc2c1CCCC2,3.75
11,O=c1cc(-c2cc(Br)cc3c2OCOC3)oc2ccccc12,3.93
12,CCOc1ccc2nc(N3CCC(C(=O)NCCc4c[nH]c5ccccc45)CC3)sc2c1,1.8
13,CCn1cc(/C=C(\NC(=O)c2ccccc2F)C(=O)NC(C)C)c2ccccc21,1.64
14,NC1=NC(=O)/C(=C/c2ccc(OCC(=O)O)cc2)S1,-0.467
15,Cc1ccc(/C=C/c2cc(=O)n3ccsc3n2)cc1,-0.0709
16,COc1ccccc1C(=O)Nc1nc2c(Cl)cccc2s1,-1.28
17,O=C(Nc1ccc(S(=O)(=O)Nc2nccs2)cc1)C(c1ccccc1)c1ccccc1,-3.95
18,CC12C=CC(O1)C1C(=O)N(c3ccc(F)cc3)C(=O)C12 (stereo not shown),0.545
19,Cc1cccc(C(=O)Nc2sc(C)c(C)c2C(=O)O)c1,0.35
20,CCn1cc(C(=O)Nc2ccc(S(=O)(=O)NC34CC5CC(CC(C5)C3)C4)cc2)cn1,25.6
21,O=C(CSCc1cnn(-c2ccccc2)c1-n1cccc1)NCc1ccccn1,-1.08
22,CC(=O)Nc1ccc(-c2cc(NC(C)=O)n(C)n2)cc1,-6.21
23,Cc1nc2nc(O)cc(N)n2n1,2.31
24,OCC1CCCN(CCCc2ccccc2)C1 (stereo not shown),5.03
25,COc1ccc(C2NCCC3(O)CCCCC23)c(C)c1C (stereo not shown),-1.85

row,Structure (SMILES),% Inhibition @ 10 uM [%]
1,CCCNCCOC(c1ccccc1)c1ccc(C)cc1 (stereo not shown),0.343
2,COc1cc(C2c3c(oc4ccc(C)cc4c3=O)C(=O)N2c2nc(C)c(C)s2)ccc1O (stereo not shown),-1.33
3,CCOc1cc(C2C(C#N)=C(N)Oc3[nH]nc(-c4cc(C)sc4C)c32)cc(Br)c1O (stereo not shown),-0.99
4,COc1ccc2[nH]c3c(=O)n(Cc4ccc(C(=O)NCc5ccco5)cc4)c(=S)[nH]c3c2c1,-5.76
5,O=C(O)CC1NCCNC1=O (stereo not shown),-1.33
6,Cn1cc(S(=O)(=O)N2CCCC2)cc1C(=O)NC1CCN(Cc2ccccc2)CC1,-4.37
7,CCCC(=O)N1CCN(c2ccc(NC(=O)c3c(OC)cccc3OC)cc2Cl)CC1,0.245
8,COc1ccccc1CC(C)NCCN(C)C (stereo not shown),0.217
9,CC(C)c1ccc(NC(=O)CN(Cc2ccccc2)S(C)(=O)=O)cc1,-1.52
10,CS(=O)(=O)C1=NSC2=NC(=O)/C(=C\c3ccc(Sc4ccc(Cl)cc4)o3)C(=N)N21,-1.58
11,CCSCCNC(=O)c1cncc(Br)c1,4.19
12,CC(C)Cc1ccc(C(=O)NCC2OCCc3ccccc32)cc1 (stereo not shown),11.5
13,CC(C)C(=O)Nc1c(C(=O)c2ccc(Br)cc2)oc2ccccc12,-2.91
14,O=C(NCCc1c[nH]c2ccccc12)c1csc2c1CCCCC2,0.277
15,Cc1ccc(S(=O)(=O)N2Cc3ccccc3CC2C(=O)NC(C)(C)C)cc1 (stereo not shown),0.214
16,CO[C@H]1O[C@H](COC(c2ccccc2)(c2ccccc2)c2ccccc2)[C@@H](O)[C@H](O)[C@H]1O,4.18
17,O=C(O)c1cc(-c2ccc(F)cc2)on1,0.596
18,Cc1ccc(-c2nnc(-c3ccccc3Cl)o2)s1,-0.833
19,COc1ccc(Cl)cc1C(=O)Nc1nc2c(s1)Cc1c(Br)ccc(OC)c1-2,1.12
20,O=C(CCCn1c2ccccc2c2cnnc(O)c21)NCCCN1CCOCC1,4.55
21,COc1ccccc1NC(=O)c1ccc(Cn2cc(Cl)cn2)cc1,-4.67
22,CCCc1ccc(OCc2nc(-c3nonc3N)no2)cc1,0.746
23,O=C1c2oc3ccccc3c(=O)c2C(c2ccc(F)cc2)N1Cc1ccc2c(c1)OCO2 (stereo not shown),-1.33
24,Cc1cc(C)n(CC(=O)O)n1,-2.96
25,Cc1ccc2c(Cl)c(C(=O)Nc3ccccc3C(N)=O)sc2c1,-2.54

row,Structure (SMILES),% Inhibition @ 10 uM [%]
1,CN1CCCN(Cc2cccc3ccccc23)CC1,-1.92
2,COc1cccc2c1Oc1nc(-c3ccccn3)nc(O)c1C2,3.92
3,O=C(Nc1cc([N+](=O)[O-])ccc1O)c1ccc(Br)cc1,-1.86
4,CCOC(=O)c1cc(C)[nH]c1C,4.42
5,CC1=C(C(=O)Nc2ccc(F)cc2F)C(c2ccc3c(c2)OCO3)C2=C(O)CCCC2=N1 (stereo not shown),0.121
6,Cc1ccc(S(=O)(=O)N2CCCC(C(=O)NC(c3ccccc3)c3ccccc3)C2)cc1 (stereo not shown),-1.07
7,COc1cc(C2c3c(-c4ccccc4O)n[nH]c3C(=O)N2CCCO)ccc1OCC(C)C (stereo not shown),-1.35
8,O=C(O)Cc1ccc(CCc2ccccc2)s1,-0.0369
9,Cn1nccc1C(=O)Nc1ccn(Cc2ccccc2F)n1,0.709
10,Cn1cc(S(=O)(=O)N2CCCC2)cc1C(=O)N1CCC(Cc2ccccc2)CC1,-8.34
11,COc1ccc(OC)c(NC(=O)C2CCCC2)c1,0.231
12,Cc1ccc(C2CC(C(F)(F)F)n3nc(C(=O)NCC4CCCO4)cc3N2)cc1 (stereo not shown),18.5
13,CCCC(NS(=O)(=O)c1cc(-c2cc(C)no2)ccc1C)c1cccs1 (stereo not shown),-1.92
14,CCC(Sc1nnnn1-c1ccccc1)C(=O)Nc1sc2c(c1C#N)CCCC2 (stereo not shown),3.47
15,CCc1nn(CC(=O)NCCCN2CCN(Cc3ccccc3)CC2)c(=O)c2cc3occc3n12,4.55
16,Cc1cccc(C)c1NC(=O)CN1C(=O)S/C(=C/c2cc(C)n(-c3cccnc3)c2C)C1=O,2.98
17,CCC(=O)c1c(N2CCOCC2)nc(C)c2c1CCCC2,-1.84
18,O=C(/C=C(/Nc1ccccn1)C(=O)c1ccccc1)c1ccccc1,-0.99
19,COc1ccc(/C=C(/NC(=O)c2ccccc2)C(=O)N2CC3(C)CC2CC(C)(C)C3)cc1 (stereo not shown),2.38
20,Cn1cc(NC(=O)N2CCCCCC2)c2ccccc2c1=O,0.745
21,Nc1ccc2c(c1)C(=O)N(CCCCCC(=O)O)C2,-4.12
22,CCOC(=O)C(C#N)=C1CCCCCC1,-4.06
23,CC12CCC(O)CC1=CCC1C2CCC2(C)C(O)/C(=C/c3ccc(OC(F)F)cc3)CC12 (stereo not shown),10.9
24,CCC(=O)Nc1c(C)n(C)n(-c2ccccc2)c1=O,3.15
25,NC(=O)CN(c1ccccc1)C1SC(=O)N(Cc2cccc(C(=O)O)c2)C1=O (stereo not shown),-2.8

row,Structure (SMILES),% Inhibition @ 10 uM [%]
1,c1ccc(OCCCCN2CCCCC2)cc1,5.29
2,CC(C)C[C@H](NC(=O)N1CCN(C(c2ccc(F)cc2)c2ccc(F)cc2)CC1)C(=O)NCC#N,-0.406
3,CCCC(C(=O)O)N1C(=O)C2C3C=CC(C3)C2C1=O (stereo not shown),-0.759
4,CN(C)CCN(Cc1ccccc1)Cc1cccc(F)c1,-1.81
5,OC(c1cccc(OCc2ccccc2)c1)c1cccs1 (stereo not shown),1.62
6,CCCCn1c(SCC(=O)Nc2nccs2)nc2ccsc2c1=O,0.0592
7,COc1ccc(OC)c(/C=C2\C(=O)/C(=C/c3cc(OC)ccc3OC)C3CCC2N3C)c1,6.89
8,Cc1nc(-c2ccc(Cl)cc2Cl)nc(C)c1C#N,20.8
9,COC(=O)c1oc2c(c1C)-c1nc3ccccc3nc1C(C)(C)C2,2.31
10,CCOC(=O)C1=C(CN2CCN(C(=O)OCC)CC2)NC(=O)NC1c1cccc(OC)c1OC (stereo not shown),2.12
11,COc1ccc(C)cc1NC(=O)c1ccc(C)o1,3.53
12,CCOc1ccc(C)cc1S(=O)(=O)n1cnc2cc(C)c(C)cc21,-4.78
13,O=C(CSc1nc[nH]n1)N1CCN(c2nnc(-c3ccccc3)c3ccccc23)CC1,-2.75
14,O=C(NCC1CCCO1)c1nn2c(c1Br)NC(c1cccs1)CC2C(F)(F)F (stereo not shown),-0.142
15,Clc1ccc(N2CC=CCC2)nn1,1.12
16,O=C(NCc1ccc2c(c1)OCO2)C1CCN(S(=O)(=O)c2cccc3nonc23)CC1,-2.56
17,CCC1CCCCN1CCCNC(=O)c1cc2ccc3cccnc3c2[nH]1 (stereo not shown),2.44
18,CC[C@H](NC(=O)[C@@H](O)CS(=O)(=O)Cc1ccccc1)C(=O)c1nc2ccccc2s1,-0.214
19,O=C(Cc1ccccc1)NCc1ccc(-n2cccc2)cc1,1.32
20,CCn1ncc(/C=C2/CC3C4CC=C5CC(O)CCC5(C)C4CCC3(C)C2=O)c1C (stereo not shown),0.64
21,COc1cc(CNC(=O)C2CCN(c3cnccn3)CC2)cc(OC)c1OC,0.758
22,O=C(c1cccs1)N1CCc2ccccc2C1,-4.4
23,O=C(CN1C(=O)S/C(=C\c2ccc(Cl)cc2)C1=O)Nc1ccc(C(=O)O)cc1,-3
24,O=C(Nc1cccc2c1C(=O)c1ccccc1C2=O)c1cccs1,1.43
25,COc1ccccc1C(=O)Nc1cccc(C)c1C,-1.48
